Data: publication PMC6992704
Results are given in words; binding and its absence hold for the method and conditions named. For some of these results: In cells and extracts the contact can be indirect. Some entries that bind do so weakly or less than the wild type. One block for each molecule: values may come before it.

The chains behind the UniProt entries cited, without tags or fusion partners. Where a name states a change or a piece, a line headed by the entry shows the natural chain unless it says otherwise.
UniProt Q07157: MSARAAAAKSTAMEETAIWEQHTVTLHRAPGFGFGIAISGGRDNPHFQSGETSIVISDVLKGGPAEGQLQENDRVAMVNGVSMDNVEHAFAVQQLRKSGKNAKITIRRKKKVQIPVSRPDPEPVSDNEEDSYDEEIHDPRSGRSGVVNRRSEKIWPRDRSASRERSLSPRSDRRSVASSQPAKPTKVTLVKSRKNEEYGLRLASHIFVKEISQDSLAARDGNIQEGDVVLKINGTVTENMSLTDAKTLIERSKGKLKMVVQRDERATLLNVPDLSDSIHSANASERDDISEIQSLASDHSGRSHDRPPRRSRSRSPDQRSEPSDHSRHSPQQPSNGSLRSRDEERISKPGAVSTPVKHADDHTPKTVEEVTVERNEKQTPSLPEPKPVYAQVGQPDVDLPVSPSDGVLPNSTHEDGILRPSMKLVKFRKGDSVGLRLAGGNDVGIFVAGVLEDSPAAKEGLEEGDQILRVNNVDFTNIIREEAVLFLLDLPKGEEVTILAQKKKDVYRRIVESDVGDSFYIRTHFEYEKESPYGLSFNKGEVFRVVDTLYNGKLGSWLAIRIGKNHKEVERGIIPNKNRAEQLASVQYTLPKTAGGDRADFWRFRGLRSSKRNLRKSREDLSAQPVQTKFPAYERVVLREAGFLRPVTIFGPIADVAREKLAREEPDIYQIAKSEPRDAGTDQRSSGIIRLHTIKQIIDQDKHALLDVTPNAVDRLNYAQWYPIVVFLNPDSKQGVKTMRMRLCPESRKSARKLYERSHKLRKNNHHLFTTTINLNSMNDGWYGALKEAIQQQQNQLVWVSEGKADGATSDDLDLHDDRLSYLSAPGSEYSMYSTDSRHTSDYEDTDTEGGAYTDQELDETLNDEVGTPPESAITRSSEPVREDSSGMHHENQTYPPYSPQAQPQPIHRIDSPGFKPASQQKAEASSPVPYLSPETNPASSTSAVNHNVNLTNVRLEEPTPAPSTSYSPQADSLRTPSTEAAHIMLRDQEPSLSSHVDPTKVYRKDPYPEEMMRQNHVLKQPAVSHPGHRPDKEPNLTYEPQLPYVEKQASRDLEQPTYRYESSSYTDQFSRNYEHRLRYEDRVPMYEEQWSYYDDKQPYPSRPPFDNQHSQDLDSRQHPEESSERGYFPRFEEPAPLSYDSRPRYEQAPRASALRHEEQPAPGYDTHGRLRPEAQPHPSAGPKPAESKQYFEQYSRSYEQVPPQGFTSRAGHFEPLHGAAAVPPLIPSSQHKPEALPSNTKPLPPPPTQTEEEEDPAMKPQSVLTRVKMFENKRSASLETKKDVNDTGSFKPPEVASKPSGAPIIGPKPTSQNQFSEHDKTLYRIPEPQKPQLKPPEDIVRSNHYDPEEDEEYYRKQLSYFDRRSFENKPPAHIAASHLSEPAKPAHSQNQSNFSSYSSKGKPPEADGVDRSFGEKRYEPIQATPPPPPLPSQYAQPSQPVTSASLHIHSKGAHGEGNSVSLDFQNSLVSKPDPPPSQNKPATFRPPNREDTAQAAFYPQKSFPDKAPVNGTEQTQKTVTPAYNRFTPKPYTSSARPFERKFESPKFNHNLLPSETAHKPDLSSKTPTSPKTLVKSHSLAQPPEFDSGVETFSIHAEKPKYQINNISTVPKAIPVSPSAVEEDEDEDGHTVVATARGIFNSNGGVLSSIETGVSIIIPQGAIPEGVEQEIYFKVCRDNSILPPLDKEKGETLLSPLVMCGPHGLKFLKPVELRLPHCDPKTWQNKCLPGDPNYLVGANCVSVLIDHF
UniProt P39447: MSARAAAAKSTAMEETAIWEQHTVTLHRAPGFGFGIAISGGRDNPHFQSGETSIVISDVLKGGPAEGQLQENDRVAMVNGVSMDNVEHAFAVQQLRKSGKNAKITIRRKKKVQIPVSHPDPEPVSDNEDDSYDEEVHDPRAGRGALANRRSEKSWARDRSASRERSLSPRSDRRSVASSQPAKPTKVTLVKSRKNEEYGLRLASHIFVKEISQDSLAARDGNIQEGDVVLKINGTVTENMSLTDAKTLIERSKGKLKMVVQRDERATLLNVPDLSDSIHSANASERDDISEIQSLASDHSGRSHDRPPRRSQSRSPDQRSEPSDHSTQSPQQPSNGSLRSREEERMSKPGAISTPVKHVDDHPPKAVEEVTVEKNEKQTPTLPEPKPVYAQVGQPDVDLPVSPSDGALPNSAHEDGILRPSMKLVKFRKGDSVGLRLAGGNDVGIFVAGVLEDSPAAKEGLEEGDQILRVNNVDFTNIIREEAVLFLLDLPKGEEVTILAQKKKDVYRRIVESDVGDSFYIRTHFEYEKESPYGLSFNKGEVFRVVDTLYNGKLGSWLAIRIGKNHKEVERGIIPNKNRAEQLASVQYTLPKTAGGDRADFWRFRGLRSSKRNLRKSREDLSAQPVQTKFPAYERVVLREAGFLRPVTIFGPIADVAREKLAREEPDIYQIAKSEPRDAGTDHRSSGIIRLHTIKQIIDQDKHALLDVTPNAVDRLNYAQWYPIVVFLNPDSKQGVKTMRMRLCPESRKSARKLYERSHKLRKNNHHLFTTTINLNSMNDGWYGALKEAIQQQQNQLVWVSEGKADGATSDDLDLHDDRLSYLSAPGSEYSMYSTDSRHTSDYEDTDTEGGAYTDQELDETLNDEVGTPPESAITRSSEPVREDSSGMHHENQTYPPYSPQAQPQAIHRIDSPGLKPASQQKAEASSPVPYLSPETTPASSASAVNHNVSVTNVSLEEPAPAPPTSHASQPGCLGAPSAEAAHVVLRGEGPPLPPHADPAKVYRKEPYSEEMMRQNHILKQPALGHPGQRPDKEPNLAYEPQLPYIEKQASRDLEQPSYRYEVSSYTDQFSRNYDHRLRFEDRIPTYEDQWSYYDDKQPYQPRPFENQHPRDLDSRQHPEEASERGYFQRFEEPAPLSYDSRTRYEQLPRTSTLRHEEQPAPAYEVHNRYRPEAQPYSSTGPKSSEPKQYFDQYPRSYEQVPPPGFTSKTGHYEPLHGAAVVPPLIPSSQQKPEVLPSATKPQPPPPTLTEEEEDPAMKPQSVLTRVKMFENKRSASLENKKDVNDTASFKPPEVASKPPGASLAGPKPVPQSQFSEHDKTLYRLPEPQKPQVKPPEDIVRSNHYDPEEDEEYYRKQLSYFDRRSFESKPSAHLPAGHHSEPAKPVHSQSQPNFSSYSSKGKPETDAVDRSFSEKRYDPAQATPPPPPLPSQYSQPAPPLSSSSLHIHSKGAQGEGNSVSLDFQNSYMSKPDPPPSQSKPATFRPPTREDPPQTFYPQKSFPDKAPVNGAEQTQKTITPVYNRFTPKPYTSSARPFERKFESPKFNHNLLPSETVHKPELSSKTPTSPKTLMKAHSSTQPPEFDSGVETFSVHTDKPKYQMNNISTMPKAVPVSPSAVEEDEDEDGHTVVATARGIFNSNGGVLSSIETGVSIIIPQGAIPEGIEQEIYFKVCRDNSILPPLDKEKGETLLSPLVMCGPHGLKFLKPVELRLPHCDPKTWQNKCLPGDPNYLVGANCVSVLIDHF
UniProt O00327: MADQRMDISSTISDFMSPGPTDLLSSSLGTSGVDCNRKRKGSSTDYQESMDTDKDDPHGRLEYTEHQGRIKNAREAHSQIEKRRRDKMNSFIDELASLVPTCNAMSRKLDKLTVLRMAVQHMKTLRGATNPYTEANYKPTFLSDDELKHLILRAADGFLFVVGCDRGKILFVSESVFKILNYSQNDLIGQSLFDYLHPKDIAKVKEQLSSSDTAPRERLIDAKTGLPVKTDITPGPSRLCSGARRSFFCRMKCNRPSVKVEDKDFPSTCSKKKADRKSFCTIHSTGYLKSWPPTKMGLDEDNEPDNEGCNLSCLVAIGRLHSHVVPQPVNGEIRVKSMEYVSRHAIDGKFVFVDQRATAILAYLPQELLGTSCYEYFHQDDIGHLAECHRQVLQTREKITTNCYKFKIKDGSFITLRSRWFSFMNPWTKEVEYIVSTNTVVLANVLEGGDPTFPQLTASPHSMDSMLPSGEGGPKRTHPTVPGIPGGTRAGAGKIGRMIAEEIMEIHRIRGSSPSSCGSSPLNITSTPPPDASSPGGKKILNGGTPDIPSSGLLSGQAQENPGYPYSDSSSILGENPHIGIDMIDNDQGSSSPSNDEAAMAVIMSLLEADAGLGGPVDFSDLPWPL
UniProt O35973: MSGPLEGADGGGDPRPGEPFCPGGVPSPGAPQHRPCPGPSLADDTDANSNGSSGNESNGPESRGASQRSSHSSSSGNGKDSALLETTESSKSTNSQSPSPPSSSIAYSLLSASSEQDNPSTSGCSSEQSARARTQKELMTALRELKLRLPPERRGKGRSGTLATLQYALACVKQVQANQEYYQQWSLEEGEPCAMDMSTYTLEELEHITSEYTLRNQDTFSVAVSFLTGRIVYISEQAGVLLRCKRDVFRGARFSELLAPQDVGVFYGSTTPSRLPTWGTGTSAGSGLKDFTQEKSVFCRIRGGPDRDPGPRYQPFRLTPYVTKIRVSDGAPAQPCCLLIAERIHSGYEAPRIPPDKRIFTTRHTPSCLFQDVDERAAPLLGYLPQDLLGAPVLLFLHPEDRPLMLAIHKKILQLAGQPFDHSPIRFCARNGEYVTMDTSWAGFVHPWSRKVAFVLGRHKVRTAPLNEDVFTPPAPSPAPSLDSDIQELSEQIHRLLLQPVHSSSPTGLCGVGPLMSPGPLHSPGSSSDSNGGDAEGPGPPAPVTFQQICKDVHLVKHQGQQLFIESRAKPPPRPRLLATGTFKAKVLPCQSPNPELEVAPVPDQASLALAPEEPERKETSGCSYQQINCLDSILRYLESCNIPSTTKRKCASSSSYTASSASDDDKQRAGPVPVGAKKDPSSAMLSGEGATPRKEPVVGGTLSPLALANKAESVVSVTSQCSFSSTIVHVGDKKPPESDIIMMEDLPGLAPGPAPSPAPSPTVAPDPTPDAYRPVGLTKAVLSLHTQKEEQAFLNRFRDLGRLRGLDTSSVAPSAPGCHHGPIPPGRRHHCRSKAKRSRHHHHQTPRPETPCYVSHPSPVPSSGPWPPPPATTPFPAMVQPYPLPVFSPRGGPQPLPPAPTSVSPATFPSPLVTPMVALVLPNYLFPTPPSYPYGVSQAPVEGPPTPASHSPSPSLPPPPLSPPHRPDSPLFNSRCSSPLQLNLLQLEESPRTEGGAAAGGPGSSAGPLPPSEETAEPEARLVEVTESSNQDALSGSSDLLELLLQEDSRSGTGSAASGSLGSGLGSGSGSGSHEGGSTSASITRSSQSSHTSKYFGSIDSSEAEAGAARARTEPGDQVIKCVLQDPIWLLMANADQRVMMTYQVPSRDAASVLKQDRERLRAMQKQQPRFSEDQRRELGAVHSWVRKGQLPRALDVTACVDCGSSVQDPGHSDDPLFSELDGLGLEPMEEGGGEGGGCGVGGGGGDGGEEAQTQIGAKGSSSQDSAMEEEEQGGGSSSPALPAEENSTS

Key:
[1] = target: HA-tagged TJP1 (pcDNA3 with HA tag) (human) (UniProt Q07157); test: co-IP; TJP1-overexpressing cells in lysis buffer (150 mM NaCl, 50 mM HEPES pH 7.4, 1% Triton X-100); HA-tagged TJP1 immunoprecipitated with HA-beads; washed at least four times; cell type not stated
[2] = target: mCherry-tagged TJP1 6A (T589A/T709A/S927A/S1360A/S1460A/S1617A mutant of human TJP1) (human) (UniProt Q07157); test: co-IP; mouse primary hepatocytes expressing FLAG-PER1 and mCherry-tagged TJP1 or mutants, in the presence or absence of amino acids; mCherry-tagged TJP1 immunoprecipitated by anti-mCherry antibody
[3] = target: mCherry-tagged TJP1 6D (T589D/T709D/S927D/S1360D/S1460D/S1617D mutant of human TJP1) (human) (UniProt Q07157); test: as above
[4] = target: mCherry-tagged TJP1 (human) (UniProt Q07157); test: as above
[5] = target: His-HA-tagged TJP1, purified (human) (UniProt Q07157); test: co-IP; in vitro co-IP; purified fusion proteins; both purified
[6] = target: endogenous TJP1 (tight junction protein 1) (mouse (endogenous in primary hepatocytes and liver)) (UniProt P39447); test: co-IP; endogenous proteins of mouse primary hepatocytes in a collagen sandwich; TJP1 immunoprecipitated with anti-TJP1 antibody and Protein A/G Plus Agarose, rabbit IgG as negative control; cells treated with amino acids and/or 250 nM Torin1
[7] = target: endogenous TJP1 (tight junction protein 1) (mouse (endogenous in primary hepatocytes and liver)) (UniProt P39447); test: co-IP; endogenous proteins of mouse liver extracts harvested at ZT6 and ZT18; TJP1 immunoprecipitated with anti-TJP1 antibody and Protein A/G Plus Agarose, rabbit IgG as negative control

Molecule: BMAL1 (brain and muscle ARNT-like 1) (from UniProt O00327 1-626)
binding [1]: no binding

Molecule: FLAG-PER1 (wildtype PER1), co-IP of Supplementary Fig. 2b (from UniProt O35973 1-1291)
binding [1]: binds

Molecule: His-PER1 fusion protein, purified (from UniProt O35973 1-1291)
binding [5]: binds

The remaining lines, values ahead:

binding [1]: binds
Molecule: FLAG-PER1 (1-1147) (from UniProt O35973 1-1147) (domain or fragment)

binding [2]: binds | binding [3]: no binding | binding [4]: binds
Molecule: FLAG-PER1 in mouse primary hepatocytes (from UniProt O35973 1-1291)

binding [6]: binds | binding [7]: binds
Molecule: endogenous PER1 (period circadian regulator 1) (from UniProt O35973 1-1291)

binding [1]: no binding
B1: CLOCK (circadian locomotor output cycles kaput) (protein, UniProt O15516 1-846)
chain: MLFTVSCSKMSSIVDRDDSSIFDGLVEEDDKDKAKRVSRNKSEKKRRDQFNVLIKELGSMLPGNARKMDKSTVLQKSIDFLRKHKEITAQSDASEIRQDWKPTFLSNEEFTQLMLEALDGFFLAIMTDGSIIYVSESVTSLLEHLPSDLVDQSIFNFIPEGEHSEVYKILSTHLLESDSLTPEYLKSKNQLEFCCHMLRGTIDPKEPSTYEYVKFIGNFKSLNSVSSSAHNGFEGTIQRTHRPSYEDRVCFVATVRLATPQFIKEMCTVEEPNEEFTSRHSLEWKFLFLDHRAPPIIGYLPFEVLGTSGYDYYHVDDLENLAKCHEHLMQYGKGKSCYYRFLTKGQQWIWLQTHYYITYHQWNSRPEFIVCTHTVVSYAEVRAERRRELGIEESLPETAADKSQDSGSDNRINTVSLKEALERFDHSPTPSASSRSSRKSSHTAVSDPSSTPTKIPTDTSTPPRQHLPAHEKMVQRRSSFSSQSINSQSVGSSLTQPVMSQATNLPIPQGMSQFQFSAQLGAMQHLKDQLEQRTRMIEANIHRQQEELRKIQEQLQMVHGQGLQMFLQQSNPGLNFGSVQLSSGNSSNIQQLAPINMQGQVVPTNQIQSGMNTGHIGTTQHMIQQQTLQSTSTQSQQNVLSGHSQQTSLPSQTQSTLTAPLYNTMVISQPAAGSMVQIPSSMPQNSTQSAAVTTFTQDRQIRFSQGQQLVTKLVTAPVACGAVMVPSTMLMGQVVTAYPTFATQQQQSQTLSVTQQQQQQSSQEQQLTSVQQPSQAQLTQPPQQFLQTSRLLHGNPSTQLILSAAFPLQQSTFPQSHHQQHQSQQQQQLSRHRTDSLPDPSKVQPQ
